Assay results: PubChem BioAssay AID1508624 (National Center for Advancing Translational Sciences (NCATS), 2021)
Among all 48,000 compounds or so, about 120 (0.25%) were called active. Another 4% or so got no clear call; they are omitted. Calls come from the whole dose curve; as a rule, active = well fitted activation curve with a large enough effect; inconclusive = small, poorly fitted or top-dose-only effect, or another doubt; inactive = no such curve, though single readings can be large or run the other way. The list shows a part of the results.

Experiment: Primary qHTS for Identification of Small Molecule Activators of Huntingtin-Antisense Promoter Activity; note: nearly all actives have a fitted effect of over 55% in size
Conditions: HEK293 HTT-AS promoter firefly luciferase reporter, 24 h; series mostly up to 57.5 µM; activity change, positive = activation: at the top concentration
Summary of the method: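 HEK293 luciferase promoter-reporter cells (2,500/well) plated 24 h, then compounds added at up to 57.5 uM final for 24 h at 37 °C. Firefly luminescence by Dual-Glo, normalized to vehicle (0%) and zero RLU (-100%).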

Compound | activity change, positive = activation
COc1cccc(-c2ccc(NC(=O)C3=C(C(=O)O)CCC3)c(F)c2)c1 | inactive: 14.3%
CCc1ccc(NC(=O)c2cc(S(=O)(=O)NC3CCCCCC3)ccc2F)cc1 | inactive: -47.1%
Cc1nn(-c2ccccc2)c2c1N(CCCC(=O)NC(C)c1ccccc1)C(=O)CS2 (stereo not given) | inactive: -17.2%
Cc1nn(-c2ccccc2)c2c1N(CC(=O)N1CCN(c3ccc(Cl)cc3)CC1)C(=O)CS2 | inactive: -14.4%
CCc1ccc(CNC(=O)CCn2nc(C)c3c(C)n(-c4ccccc4)nc3c2=O)cc1 | inactive: 3.93%
Cc1ccc(S(=O)(=O)c2cn(Cc3ccccc3)c3cc(N4CCOCC4)c(F)cc3c2=O)cc1 | inactive: -25.1%
COc1cc(NC(=O)c2noc3c2CC(C)CC3)c(OC)cc1Cl (stereo not given) | inactive: -9.36%
O=c1[nH]c(=O)n([C@H]2C[C@@H](O)[C@@H](CO)O2)cc1I | inactive: -10%
CC1CCC(NC(=O)c2ccc(CSc3nc4ccncc4n3Cc3ccc(F)cc3)cc2)CC1 (stereo not given) | inactive: -15.7%
COc1ccc(-n2c(SCCC(C)C)nc3sc4c(c3c2=O)CC(C(C)C)OC4)cc1 (stereo not given) | inactive: -1.76%
Cc1nn(CCCC(=O)Nc2ccccc2C(F)(F)F)c(=O)c2nn(-c3ccccc3)c(C)c12 | inactive: -4.92%
Cc1nn2c(-c3ccccc3)cc(-c3ccccc3)nc2c1-c1ccc(Cl)cc1 | inactive: -0.839%
Cc1cc(C)n2nc(CNC(=O)c3ccc(Cl)cc3)nc2n1 | inactive: -3.76%
O=C(Nc1ccccc1)c1cccc(N2CCCS2(=O)=O)c1 | inactive: 7.49%
COc1ccc(C(CC(=O)Nc2ncccc2C)N2Cc3ccccc3C2=O)cc1OC (stereo not given) | inactive: -19.3%
COc1ccc(NC(=O)[C@H](Cc2ccccc2)N2Cc3ccccc3C2=O)cc1OC | inactive: -25.1%
COc1cccc(NC(=O)Cn2c(=O)n(Cc3ccc4c(c3)OCO4)c(=O)c3oc4ccccc4c32)c1 | inactive: -11.6%
Cc1ccc(-n2ncc(C(=O)NCCN3CCN(C)CC3)c2C2CCN(C(=O)OC(C)(C)C)CC2)cc1C | inactive: -5.74%
CC(=O)c1cccc(NS(=O)(=O)c2c(C(=O)N3CCCCCC3)c(C)n(C)c2C)c1 | inactive: -7.73%
COc1ccc2c(c1)c(N1CCCC1=O)c(C(=O)Nc1ccc(OC)c(Cl)c1)n2C | inactive: -35.3%
CCOc1ccc(CNC(=O)Cn2c(=O)c3cccn3c3cccnc32)cc1 | inactive: -8.04%
COc1ccccc1Nc1nc(C)nc(N)c1S(=O)(=O)c1ccccc1 | inactive: -8.63%
CN(C)CCN(Cc1cccs1)c1ccccn1 | inactive: -4.94%
Cc1nc2c3cccnc3nn2c(C)c1CCC(=O)NCc1ccccc1 | inactive: -20.2%

Compound | activity change, positive = activation
Cc1ccc(C)c(NC(=O)c2cc(S(=O)(=O)NCc3ccccc3)ccc2F)c1 | inactive: -15.7%
CCN(CC)S(=O)(=O)c1ccc2c(c1)nc(CN(C)C(=O)Nc1ccc(C)c(Cl)c1)n2C | inactive: -23%
COc1ccc(Nc2ncc(C(=O)Nc3cccc(Cl)c3)c3ccccc23)cc1 | inactive: -10.9%
CCc1ccc(NC(=O)C(=O)NCC(c2ccc3c(c2)OCO3)N2CCN(C)CC2)cc1 (stereo not given) | inactive: -16.5%
Cc1ccc(OCC(=O)NCC2(N3CCN(C)CC3)CCCCC2)cc1 | inactive: -11.6%
CC(C)CCNC(=O)c1cnc2sc(N3CCCCCC3)nn2c1=O | inactive: -15.9%
COc1ccc(CNC(=O)c2ccc(Cn3c(=O)c4cccn4c4cccnc43)cc2)c(OC)c1 | inactive: -15.3%
Cc1ccc(O)c(NC(=O)c2cc(-c3ccc(F)cc3)no2)c1 | inactive: 25%
COc1ccc(-n2nc3c(N4CCC(C(=O)N5CCC(C)CC5)CC4)nnc(C)c3c2C)cc1 | inactive: -14.8%
CC(=O)NCC(=O)N1[C@H]2CC[C@H]1c1cc(Nc3ncc(C(F)(F)F)c(NC4CCC4)n3)ccc12 | inactive: -38.8%
COc1cccc(-c2nc(CS(=O)(=O)CC(=O)N3CCN(c4ccccc4)CC3)c(C)o2)c1 | inactive: -26.1%
Cc1ccc(Cl)cc1N1CCN(C(=O)c2ccc3c(Cl)c4c(nc3c2)CCCC4)CC1 | inactive: -17.5%
O=C(Cn1c(=O)ccc2cc(S(=O)(=O)N3CCCC3)ccc21)Nc1ccccc1 | inactive: -17.1%
CCN1CCN(CCCNC(=O)Cn2c(-c3cccs3)cc3cc(Cl)ccc32)CC1 | inactive: -25.1%
COc1ccc(-c2nc(CNC(=O)Nc3ccccc3)c(C)o2)c(OC)c1 | inactive: -2.96%
CCn1ccc2c(OCC(=O)Nc3ccc(OC)cc3OC)cccc2c1=O | inactive: -35.7%
O=c1ccc(-c2ccccc2)nn1Cc1c(F)cccc1Cl | inactive: -19.3%
CCn1cc(C(=O)NCCC(C)C)c(=O)c2cc(S(=O)(=O)N(C)C3CCCCC3)ccc21 | inactive: -4.54%
CCC(=O)N1c2ccccc2CC1C(=O)NCCCN1CCN(c2ccc(OC)cc2)CC1 (stereo not given) | inactive: -3.4%
CC1CCCCN1c1cc2c(cc1F)c(=O)c(S(=O)(=O)c1ccccc1)cn2Cc1ccccc1 (stereo not given) | inactive: -14%
O=S(=O)(Nc1ccc(O)c(Sc2nc3ccccc3s2)c1)c1cc(Cl)ccc1Cl | inactive: -20%
O=C(Cn1c(-c2cccs2)cc2cc(F)ccc21)NCCc1ccc(Cl)cc1 | inactive: -22.5%
Cc1c(Cl)cccc1NC(=O)C(=O)NCCc1csc2nc(-c3ccccc3F)nn12 | inactive: -27.4%
CCCCOc1ccc(CNC(=O)c2cnc3sc(N4CCCC4)nn3c2=O)cc1 | inactive: -17.9%

Compound | activity change, positive = activation
O=C(NCCCN1CCN(c2ccccc2)CC1)c1sc2ncccc2c1-n1cccc1 | inactive: -18.2%
CCOc1ccc(CCNC(=O)c2cnc3c(-c4ccc(F)cc4)c(C)nn3c2C)cc1 | inactive: -8.53%
COc1ccc(N(C(=O)c2ccccc2C)S(=O)(=O)c2ccc(Cl)cc2)cc1 | inactive: -29.5%
Nc1ncc(S(=O)(=O)NCc2ccccc2)cn1 | inactive: -1.62%
COc1cc(S(=O)(=O)NCCc2c(C)[nH]c3ccc(C)cc23)ccc1Br | inactive: -30.9%
COc1ccc(C(=O)c2cn(Cc3ccccc3)c3ccccc3c2=O)cc1OC | inactive: -19.7%
CN1C(C(=O)Nc2cccc(O)c2)=CC(c2cccs2)=NS1(=O)=O | inactive: -27.9%
O=C(NCCc1nc2ccccc2n1Cc1ccccc1F)c1ccc(F)cc1 | inactive: -29.5%
CCOc1ccc(-n2ccnc2SCC(=O)Nc2cc(C)ccc2C)cc1 | inactive: -23.7%
O=C(C1CCC1)N1CCCc2cc(S(=O)(=O)N3CCN(c4cccc(Cl)c4)CC3)ccc21 | inactive: -16.3%
CCOCc1cc(CN2CCN(c3cccc(C(F)(F)F)c3)CC2)c(O)c2ncccc12 | inactive: -35.6%
COc1c(OCCCN2CCOCC2)ccc2c3n(c(=NC(=O)c4cnc(N)nc4)nc12)CCN3 | inactive: -40.7% [at 25.1 µM, percent change from vehicle, -100% = no light]
COc1cccc(-n2c(SCc3cccc(C)c3)nc3c([nH]c4ccccc43)c2=O)c1 | inactive: -24.5%
Cc1ccc(C)c(NC(=O)C(=O)NCCCN2CCOCC2)c1 | inactive: -4.42%
CCOc1ccccc1NC(=O)COC(=O)CC(C)(C)CC1=NS(=O)(=O)c2ccccc2N1 | inactive: -42.5%
Cc1onc(-c2ccccc2Cl)c1C(=O)Oc1ccc(Cl)cc1Cl | inactive: -11.2%
CN(c1ccc(F)cc1)S(=O)(=O)N1CCCC(C(=O)NCc2ccccc2Cl)C1 (stereo not given) | inactive: -27.1%
CCN(CC)S(=O)(=O)c1ccc(OC)c(NC(=O)c2sc3ccccc3c2Cl)c1 | inactive: -12.1%
Cc1ccc2c(c1)c1c(c(=O)n(Cc3ccccc3)c(=O)n1Cc1ccccc1F)n2C | inactive: -15.4%
Cc1cccc(NC(=O)c2oc3ccccc3c2NC(=O)c2cc(=O)c3ccccc3o2)c1 | inactive: 0%
CCOc1ccc(N2CC(NC(=O)c3ccc(Cl)cc3)CC2=O)cc1 (stereo not given) | inactive: -11.6%
CCOC(=O)N1CCc2c(sc3c2c(=O)n(Cc2ccccc2)c(=O)n3CC(=O)Nc2ccc(F)cc2)C1 | inactive: -22.8%
NC(CO)(CO)CO | inactive: -0.284%
Nc1ccc(C(=O)c2cc3c(ccc4ccccc43)[nH]2)cc1 | inactive: -25.7%

Compound | activity change, positive = activation
CNC(=O)CN1C(=O)COc2ccc(S(=O)(=O)N3CCCCCC3)cc21 | inactive: -10%
O=C(Nc1cc(Cl)cc(Cl)c1)c1cc(S(=O)(=O)NC2CCCC2)ccc1F | inactive: -32.6%
COc1ccc(CN(C)c2ccc(-c3nc(-c4ccc(OC)c(OC)c4)no3)cc2[N+](=O)[O-])cc1 | inactive: -6.33%
Cc1cccc(N2CCN(C(=O)C3CCN(C(=O)c4cc5sccc5n4C)CC3)CC2C)c1 (stereo not given) | inactive: -55.3%
CCC(C)S(=O)(=O)c1oc(-c2cccs2)nc1S(=O)(=O)c1ccccc1 (stereo not given) | inactive: -93.6%
COc1cn(CC(=O)Nc2cc(C)cc(C)c2)c(CN2CCCCC2)cc1=O | inactive: -1%
CN1CCc2nc3sc(C(=O)c4ccc(F)cc4)c(N)c3cc2C1 | inactive: 27.7%
CCOc1ccccc1CNCc1c(C(=O)O)c(C)n(Cc2ccc(C)cc2)c1C | inactive: -10.2%
CCOc1ccc(NC(=O)CN(Cc2ccccc2)S(=O)(=O)c2ccc3nc(C)sc3c2)cc1 | inactive: -30.2%
CN1C(=O)c2cccc3c(S(=O)(=O)Nc4cccc(C(=O)O)c4)ccc1c23 | inactive: -10.6%
CCOc1ccc(CCNC(=O)Cn2c(-c3cccs3)cc3ccccc32)cc1 | inactive: -23%
COc1ccc(C(=O)c2cn(CC(=O)Nc3cc(OC)cc(OC)c3)c3ccc(OC)cc3c2=O)cc1 | inactive: -15.9%
COC(=O)c1ccccc1NC(=O)Cn1c(=O)n(CCC(=O)NCc2ccc3c(c2)OCO3)c(=O)c2ccccc21 | inactive: -10.7%
Cc1ccc(-c2cn3nc(N4CCCC(C(=O)NCc5ccccc5F)C4)sc3n2)cc1 (stereo not given) | inactive: -35.6%
CC1=C(C(=O)OC2CCCC2)C(c2c(F)cccc2Cl)CC(=O)N1 (stereo not given) | inactive: -33.1%
Cc1ccc(Cn2nc3n(c2=O)-c2cc(Cl)ccc2OC3)cc1 | inactive: -5.63%
Cc1ccc(-c2csc(-c3c(N)c(C(=O)c4ccc5c(c4)OCO5)n4ccccc34)n2)cc1 | inactive: 12%
COc1ccc(-n2c(-c3cccc(F)c3)nc3c(cnn3-c3ccc(C)cc3)c2=O)cc1 | inactive: -29.1%
CCOC(=O)c1c(S(=O)(=O)N2CCC(C(=O)NCc3cccc(OC)c3)CC2)c(C)n(C)c1C | inactive: 12.2%
Cc1cccc(N(C)C(=O)Cn2c(=O)oc3cc(S(=O)(=O)N4CCCCC4)ccc32)c1 | inactive: -14.3%
COc1ccc(-c2nc3ccccc3o2)cc1NC(=O)Cc1ccc(Cl)cc1 | inactive: 22.9%
O=C(CNC(=O)c1ccc(F)cc1)OCc1cc(=O)n2ccsc2n1 | inactive: -12.1%
COc1ccc(C(=O)Nc2ccc3oc(-c4cccc5c(Br)cccc45)nc3c2)cc1 | inactive: 13.8% [at 11.5 µM, percent change from vehicle, -100% = no light]
